Experimental findings from paper PMC5892938 are described below.

The list shows a part of the results. Construct or isoform of the protein are uncertain.

The target in the test is GST-SBP-ILF3 (Homo sapiens) (UniProt Q12906). The experiment in a line: targeted RNA Bind-n-Seq. Conditions: RBNS binding buffer: 25 mM Tris pH 7.5, 150 mM KCl, 3 mM MgCl2, 0.1% Tween, 0.5 mg/mL BSA, 1 mM DTT; 27 nM protein, 750 pM RNA pool; temperature not stated; high values mean tight binding; sequences stand for … in GGGUAAAAGCGAGGUGAA…CGGGACAAGUAUUAUGGG
As for “UUUUUUUUUUGAGAGGGAGACCCUUUCCGG [tttttgagapaired]”, the binding signal (log2 fold change) was 0.283.
To “UUUUUUUUUUGAGAGUGCGACAUUCUCCAG [tttttgagapaired]” belongs 0.27; to “UUUUUUUUUUGAGAUCGAGACGAUCUCCAG [tttttgagapaired]”, 0.238; to “UUUUUUUUUUGAGACCGAAGCGGUUUCCGG [tttttgagapaired]”, 0.851.
The figure for “UUUUUUUUUUGAGACGGGCUCCGUCUCCGG [tttttgagapaired]” is 0.425; for “GGUUGGUGUGUUGGCGCCUAACACAUCGAC [gtspaired]” it is -0.442; for “GUUGGUGGUGUUGGCUCCUAACACCGCCAG [gtspaired]” it is -0.309.
Regarding “GUGGUGUGUGUUGGAUCCUAACACACGCUA [gtspaired]”, the binding signal (log2 fold change) is -0.622.
In the case of “UUUUUUUUUUGAGAGUGAGACACUCUCCUG [tttttgagapaired]”, the binding signal (log2 fold change) is 0.153.
The figure for “UUUUUUUUUUGAGACUGCUCCAGUCUCCUA [tttttgagapaired]” is 0.587; for “UUUUUUUUUUGAGAUCGUUCCGAUCUCCAG [tttttgagapaired]” it is 0.366.
Turning to “UUUUUUUUUUGAGAGCGUACCGCUCUCCGG [tttttgagapaired]”, the binding signal (log2 fold change) turned out to be 0.282.
As for “UUUUUUUUUUGAGACGGCUACCGUCUCCAG [tttttgagapaired]”, the binding signal (log2 fold change) was 0.513.
For “UUUUUUUUUUGAGAGGGAUGCCCUCUCCUA [tttttgagapaired]”, the binding signal (log2 fold change) stood at 0.364.
On to “UUUUUUUUUUGAGAGGGGGCCCCUCUCCGG [tttttgagapaired]”, for which the binding signal (log2 fold change) came out at 1.17.
To “UUUUUUUUUUGAGAGGGAGGCCCUCUCCAG [tttttgagapaired]” belongs 0.611.
Consider “GGUUGUUGUGUUGGCUCCUAACACAGCAAC [gtspaired]”, for which the binding signal (log2 fold change) was -0.347.
To “GGUUGUUGUGUUGGUCCCUAACACAACAGC [gtspaired]” belongs -0.213; to “GGUGGUGGUGUUGGACCCUAACACCGCUAC [gtspaired]”, -0.633; to “GUGUGGUGUGUUGGCGUCUAACACACCGCG [gtspaired]”, -0.541.
To “UUUUUUUUUUGAGACUGAGUCAGUCUCCUA [tttttgagapaired]” belongs 0.154; to “UUUUUUUUUUGAGAGGGGACCCCUCUCCUA [tttttgagapaired]”, 0.638.
To “UUUUUUUUUUGAGACCGACUCGGUCUCCUA [tttttgagapaired]” belongs 0.288.
“UUUUUUUUUUGAGACUGGACCAGUCUCCGG [tttttgagapaired]”: the binding signal (log2 fold change) amounted to 0.498.
For the sequence “UUUUUUUUUUGAGACCGCUACGGUCUCCGG [tttttgagapaired]”, the binding signal (log2 fold change) came out at 0.373.
“UUUUUUUUUUGAGAGCGAUACGCUCUUCUA [tttttgagapaired]”: the binding signal (log2 fold change) was found to be 0.113.
As to “UUUUUUUUUUGAGAGCGAGACGUUCUCCUA [tttttgagapaired]”, the binding signal (log2 fold change) was found to be 0.0647.
The figure for “UUUUUUUUUUGAGAUGGCAACUAUCUCCAG [tttttgagapaired]” is 0.452.
To “UUUUUUUUUUGAGACGGAAACCGUCUUCUG [tttttgagapaired]” belongs 0.541; to “UUUUUUUUUUGAGAUGGAUCCCAUCUCCAG [tttttgagapaired]”, 0.31.
As for “GGUGUGUGUGUUGGUGUCUAACACAUACAC [gtspaired]”, the binding signal (log2 fold change) is -0.542.
To “UUUUUUUUUUGAGACCGCGACGGUCUCCUG [tttttgagapaired]” belongs 0.458; to “UUUUUUUUUUGAGACCGGAGCGGUCUCCUA [tttttgagapaired]”, 0.404.
With “UUUUUUUUUUGAGAGGGAGCCCCUCUCCGG [tttttgagapaired]”, the binding signal (log2 fold change) stood at 0.539.
In the case of “GUGUGGUGUGUUGGAGCCUAACACAUCACG [gtspaired]”, the binding signal (log2 fold change) is -0.785.
To “UUUUUUUUUUGAGACCGGAACGGUUUCCAG [tttttgagapaired]” belongs 0.431.
For the sequence “UUUUUUUUUUGAGAUGGUCUCCAUCUCCUA [tttttgagapaired]”, the binding signal (log2 fold change) came to 0.12.
As for “UUUUUUUUUUGAGACGGAAUCCGUUUCCUG [tttttgagapaired]”, the binding signal (log2 fold change) was 0.268.
Consider “UUUUUUUUUUGAGAUGGGAUCCAUUUCCGG [tttttgagapaired]”, for which the binding signal (log2 fold change) was 0.163.
Regarding “GGUUGUGGUGUUGGAUCCUAACACCGCAGC [gtspaired]”, the binding signal (log2 fold change) was -0.533.
In the case of “GUGGUUGGUGUUGGUCCCUAACACCAGCCA [gtspaired]”, the binding signal (log2 fold change) is -0.16.
The figure for “UUUUUUUUUUGAGACGGGAACCGUUUCCUG [tttttgagapaired]” is 0.572.
For “UUUUUUUUUUGAGAGGGGACCCCUCUUCUA [tttttgagapaired]”, the binding signal (log2 fold change) was 0.531.
To “GUGUUGUGUGUUGGAGCCUAACACACAACG [gtspaired]” belongs -0.131; to “UUUUUUUUUUGAGACGGCGUCCGUCUUCUA [tttttgagapaired]”, 0.79.
The figure for “UUUUUUUUUUGAGACCGUGGCGGUCUCCGG [tttttgagapaired]” is 0.545.
Consider “UUCUCUCUUCCUCCGCGGGAGGAGGGGAGA [ctspaired]”, for which the binding signal (log2 fold change) is -0.761.
“UUUUUUUUUUGAGACCGAGACGGUCUCCUG [tttttgagapaired]”: the binding signal (log2 fold change) stood at 0.49.
To “UUUUUUUUUUGAGACCGAGACGGUUUCCGG [tttttgagapaired]” belongs 0.742; to “UUUUUUUUUUGAGAUGGCGACCAUUUCCGG [tttttgagapaired]”, 0.831; to “GUGUGUGGUGUUGGUUCCUAACACCGCGCA [gtspaired]”, -0.724.
As to “GUGGUGUGUGUUGGUACCUAACACACGCCG [gtspaired]”, the binding signal (log2 fold change) was -0.406.
To “GGUGUUGGUGUUGGCAUCUAACACCGAUAC [gtspaired]” belongs -0.569.
In the case of “UUUUUUUUUUGAGAGCGGACCGUUCUCCGG [tttttgagapaired]”, the binding signal (log2 fold change) was found to be 0.733.
As for “UUUUUUUUUUGAGAGGGAUACCCUUUCCAG [tttttgagapaired]”, the binding signal (log2 fold change) is 0.0367.
As to “UUUUUUUUUUGAGACUGACUCAGUCUCCGG [tttttgagapaired]”, the binding signal (log2 fold change) came to 0.247.
The figure for “UUUUUUUUUUGAGAGCGGGUCGUUCUCCGG [tttttgagapaired]” is 0.339; for “UUUUUUUUUUGAGAGGGGCUCCCUCUCCGG [tttttgagapaired]” it is 0.67; for “UUUUUUUUUUGAGAGGGACUCCUUCUCCUG [tttttgagapaired]” it is 0.361.
“GGUGGUUGUGUUGGUUCCUAACACAGCUAC [gtspaired]”: the binding signal (log2 fold change) is -0.352.
Take “UUUUUUUUUUGAGACUGUAUCAGUCUUCUG [tttttgagapaired]”: the binding signal (log2 fold change) was 0.249.
To “UUUUUUUUUUGAGAGGGGACCCCUCUCCAG [tttttgagapaired]” belongs 0.915; to “UUUUUUUUUUGAGAGGGCCACCCUCUCCUA [tttttgagapaired]”, 0.831; to “UUUUUUUUUUGAGACCGAACCGGUCUCCAG [tttttgagapaired]”, 0.53.
In the case of “GUGUGUGGUGUUGGCGUCUAACACCACAUA [gtspaired]”, the binding signal (log2 fold change) was -0.676.
